# Data taken from the supplement of paper PMC3334620.
# Whole data set: some 33,000 sequences, median “E-score (-0.5 to 0.5)” near -0.012, cut for the highest 2% near 0.29. This is one part of the list.
# Target: T1, Ybr033w (UniProt P38073)
# T1 sequence: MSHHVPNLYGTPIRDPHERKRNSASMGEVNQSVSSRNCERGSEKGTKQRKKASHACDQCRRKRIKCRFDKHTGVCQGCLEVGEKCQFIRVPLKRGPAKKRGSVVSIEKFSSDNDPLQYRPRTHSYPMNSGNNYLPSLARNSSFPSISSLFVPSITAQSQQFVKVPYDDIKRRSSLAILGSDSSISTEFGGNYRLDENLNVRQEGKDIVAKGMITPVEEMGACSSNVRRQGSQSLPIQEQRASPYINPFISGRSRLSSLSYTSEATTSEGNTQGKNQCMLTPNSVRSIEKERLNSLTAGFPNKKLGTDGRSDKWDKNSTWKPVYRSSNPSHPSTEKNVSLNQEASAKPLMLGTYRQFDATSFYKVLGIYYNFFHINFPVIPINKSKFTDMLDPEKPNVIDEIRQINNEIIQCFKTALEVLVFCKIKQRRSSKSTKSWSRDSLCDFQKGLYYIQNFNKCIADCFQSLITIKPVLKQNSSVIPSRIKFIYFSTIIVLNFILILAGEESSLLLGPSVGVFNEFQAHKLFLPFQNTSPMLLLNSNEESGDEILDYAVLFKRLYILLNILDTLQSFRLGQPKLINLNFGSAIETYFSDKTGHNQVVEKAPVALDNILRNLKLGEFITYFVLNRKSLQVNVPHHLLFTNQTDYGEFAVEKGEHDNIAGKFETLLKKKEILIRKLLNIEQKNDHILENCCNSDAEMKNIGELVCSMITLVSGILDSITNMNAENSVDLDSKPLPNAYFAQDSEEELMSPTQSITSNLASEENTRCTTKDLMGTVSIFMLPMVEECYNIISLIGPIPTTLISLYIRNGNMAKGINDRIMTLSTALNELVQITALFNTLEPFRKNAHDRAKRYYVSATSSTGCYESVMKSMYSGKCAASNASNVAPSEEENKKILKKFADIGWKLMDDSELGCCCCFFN
# Assay: PBM E-score (8-mer binding enrichment) (E-score (-0.5 to 0.5)); higher = stronger / more preferred TF binding; most listed sequences are background and not binding sites
# Conditions: protein concentration: 200 nM; construct: GST-full length
# How it was run: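 For each ungapped eight-base word taken together with its reverse complement, the Universal PBM Analysis Suite assigned an E-score. Binding data came from GST-tagged yeast transcription factors, applied at about 100-200 nM, on universal all-10-mer Agilent arrays made double-stranded by primer extension. Fluorescent anti-GST marked bound protein, and scans were normalised with masliner.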
row,Sequence,PBM E-score
1,AATCTCCG,0.013
2,TGCCTGAA,0.0649
3,CTCCGATC,-0.0874
4,ACTCACAG,0.0756
5,CTCGGCCC,-0.21
6,AGGAATAG,0.134
7,GCTGGAAA,0.158
8,CATTTCAA,0.242
9,GAGGCATA,-0.0757
10,ACTACTGA,-0.0231
11,GAAGGTGA,0.0517
12,AGTGCTTC,-0.06
13,AAAACTTC,0.176
14,GGGATGAA,-0.0863
15,AGCATTAC,0.015
16,AAAGTATC,0.262
17,ACTGCCGG,-0.0435
18,ATCGCCTC,0.027
19,ATAAACCA,0.138
20,ATATTAAC,0.301
21,ATAACAAC,0.0879
22,GCTCGTTA,-0.233
23,CAAACGTC,-0.14
24,CCTAACTC,-0.22
25,CTCGGACA,-0.0707

row,Sequence,PBM E-score
1,CTCTGCCA,-0.114
2,GCATACCC,-0.0451
3,ATCTGATA,-0.0208
4,ATTGTCTA,0.144
5,GCAATCGC,-0.0818
6,AATGGCTC,0.00373
7,CGTAGGCA,-0.156
8,CTAATTGA,0.213
9,CCACAATA,0.0365
10,AGATTGAA,0.213
11,AACATACC,0.109
12,TCTCCGAA,0.075
13,ACAGGATA,0.0292
14,TCATACCA,0.167
15,GCGGTAAA,0.133
16,ACGCTCCA,0.0968
17,ATACCTCC,-0.274
18,ACCTCCCC,-0.0928
19,CCCGCCCG,-0.013
20,ATCTCAAA,0.188
21,GCGACAAA,-0.0629
22,ACACTGAA,0.178
23,CAAGACTA,0.0818
24,CATGGGAG,-0.257
25,TGTGGCAA,0.0123

row,Sequence,PBM E-score
1,GACTCCAA,-0.0418
2,GAACTGCA,0.0587
3,GATATCAA,0.161
4,GCTACAGA,-0.0725
5,CCTGACCA,0.108
6,CGCGGTAG,-0.0608
7,CAGACTTA,-0.189
8,GACGCCAA,-0.174
9,AACGACAG,-0.121
10,GAAGAGTA,0.0636
11,CGGGAACA,0.331
12,CCAAGCTA,-0.223
13,AAATAGAG,0.247
14,CGTTCTGC,0.0161
15,CTCGGCAC,-0.23
16,ACGTGTGG,-0.0918
17,AAGGCTAC,-0.0545
18,AGTTGTGG,0.143
19,ACCAAGCC,-0.0301
20,CCCAGAAA,0.0252
21,TAGCCGGA,-0.0689
22,GGGCAAAC,-0.188
23,CCAACATC,-0.0802
24,ACACGTCT,0.0647
25,AAACGAGC,0.0801

row,Sequence,PBM E-score
1,CTACACCA,0.013
2,CTTGTACA,0.124
3,ATTCACCA,0.201
4,AGTTTAAT,0.149
5,AATCTAAG,0.208
6,TCTTGGCA,0.171
7,AAACCGCT,0.069
8,CCTGAGCC,-0.22
9,ACATGGTC,-0.129
10,GATCAAGC,-0.0651
11,AGGGGTGG,-0.226
12,CAAGACTG,-0.0465
13,CCGCCAAG,-0.25
14,GAGCACCA,-0.0524
15,CACACGTG,-0.0461
16,CATCCGTA,0.148
17,ACAAGACG,-0.208
18,CGCCTGGC,-0.271
19,TGTCGAAA,0.114
20,GGCAATAA,-0.0439
21,CTCCTGCC,-0.0472
22,AGAAACTG,0.0984
23,CGAACTGC,0.0659
24,CGACTTAA,0.115
25,ATCTAGTG,0.149

row,Sequence,PBM E-score
1,AGTAAGGG,0.00036
2,GGTGGAGA,-0.293
3,CAATAGTG,0.0349
4,CAGATTGA,-0.0434
5,CTGGTGAC,-0.145
6,GGAAAGCA,-0.009
7,GGCTCGCA,-0.142
8,ACCCTGCC,-0.3
9,GCACAATA,-0.08
10,ATTGGAAG,0.0941
11,ATGTATCC,-0.03
12,GATGCGAA,0.16
13,CCGATTTA,0.183
14,ACCTAAGA,-0.00531
15,AGGAATAA,0.364
16,ATACCATG,-0.0754
17,ACAAATCT,0.234
18,TCTAGGAA,0.102
19,GAGAAAGA,0.0415
20,GACTGAAA,0.0609
21,AGCCATCA,0.0789
22,CGAAAACC,0.142
23,CGTTAACC,0.0472
24,AATATTAT,0.335
25,ACATTCGG,-0.0625

row,Sequence,PBM E-score
1,GAACAGCC,-0.0732
2,CAGGTAGG,-0.052
3,AGAGTCAC,-0.0357
4,ACTAGTAA,0.213
5,CACTTGGA,0.159
6,AGGCCCTA,-0.0825
7,AGATACTA,0.103
8,ATCCAGGA,0.119
9,CACTACGC,-0.246
10,GAGCAAAA,0.0833
11,CTCCCTCC,-0.231
12,CAACTGCG,-0.101
13,TGACTACA,0.0719
14,AACCATAC,0.0359
15,CTGCCATA,-0.0461
16,AGCGCTAC,-0.153
17,AAAGAGGG,-0.0041
18,TGGATCCA,-0.0233
19,GGCGAAAC,-0.00592
20,GTAGATGA,0.113
21,AGTGTTAT,0.165
22,AATCTTAG,0.119
23,ATTTGCGC,0.0226
24,GATCCCAC,0.0929
25,ATGATCCA,0.162

row,Sequence,PBM E-score
1,ACTACGTA,0.0636
2,CCCATCTA,-0.0571
3,ACACCATA,0.145
4,GCGTTTGA,-0.0016
5,AATATTGT,0.298
6,AGCATATC,0.0997
7,TAACCATA,0.104
8,AATCTAAC,0.251
9,AATTCGCC,0.0309
10,GCGGGCAA,-0.112
11,ATAGCTGC,0.223
12,CCCGAGAG,-0.217
13,CCCAACTA,0.0302
14,CTACGTGA,-0.0199
15,CTAAGTCA,0.0426
16,GGTTGGCA,-0.0669
17,CATTCGTC,0.00034
18,AAGCCTGA,-0.0431
19,GTACTAGA,0.168
20,ACTTACAG,0.0407
21,CGCGGTCA,-0.167
22,ACATCGGG,-0.0939
